{"source": "patent US20260364168A1", "about": "“USE OF PROTEIN KINASE C (PKC) ACTIVATING COMPOUNDS AS AN ADJUVANT” (priority 2022, published 2026)", "data": [{"tested_on": "NFκB", "test": "block of PKC activator-induced NFκB activation by PKC inhibitors (HeLa-NFκB luciferase reporter cells)", "format": "cell-based", "method": "A HeLa-NFκB luciferase reporter cell line (Wuxi Biology) was used to assess a group of PKC activator compounds for their ability to activate NFκB-driven transcription. Two sets of cells at 20000 cells/well were plated, grown overnight, and then treated for 16 h at 37 °C with DMSO, 6 doses of each compound, or TNF-α (final concentration of 10 ng/mL, positive control) in triplicates. One set of cells was assayed for luciferase activity (Promega, Cat #E1500) and the other set was assayed to determine the number of viable cells (for cell number normalization) using CellTiter-Glo (CTG) kit (Promega, Cat #G7570) according to manufacture's procedures. Normalized data (luciferase value/CTG value) were analyzed using GraphPad Prism5 to calculate EC50 for each compound (see Table 3).\nTo assess if activation of PKC is required for these compounds to activate NFκB, several PKC inhibitors including broad-spectrum and conventional PKC inhibitors were tested. In the assay described above, PKC inhibitors were added at the same time as the PKC activator compounds.", "values": [{"smiles": "COc1ccc2c(c1)c(C1=C(c3c[nH]c4ccccc34)C(=O)NC1=O)cn2CCCN(C)C", "note": "[Compound G66983]", "block of NFκB activation induced by PKC activator compounds": "completely block"}, {"smiles": "Cn1c2ccccc2c2c3c(c4c5ccccc5n(CCC#N)c4c21)CNC3=O", "note": "[Gö6976]", "block of NFκB activation induced by PKC activator compounds": "unable to block"}, {"smiles": "CN1CCN(c2nc(C3=C(c4c[nH]c5ccccc45)C(=O)NC3=O)c3ccccc3n2)CC1", "note": "[Sotrastaurin]", "block of NFκB activation induced by PKC activator compounds": "completely block"}]}]}
